Data taken from the supplement of paper PMC11876631.
Changes are numbered by the printed parent chain. In names and notes the source's numbering stands. ± gives the standard deviation of the averaged measurements. Laboratory Escherichia coli strains with one amino-acid change in an essential protein, pooled on minimal glucose agar with carbenicillin or gentamicin at twice the control MIC (plus kanamycin and chloramphenicol for the plasmids), 48 h. Fold change of barcode share against drug-free plates; higher = less susceptible. Active = above 20 in both replicates (the paper's putatively resistant). '<' = one read or none on drug, '>' = one read or none on a drug-free plate. Shares are relative, so most strains fall below 1 when a few take over. Listed are strains with at least 15 reads on both drug-free plates, and hits; most hits rest on fewer reference reads. Replicate rank correlation about 0.5. Edits are read from barcodes.

B1: argA M439W (protein)
chain: MVKERKTELVEGFRHSVPYINTHRGKTFVIMLGGEAIEHENFSSIVNDIGLLHSLGIRLVVVYGARPQIDANLAAHHHEPLYHKNIRVTDAKTLELVKQAAGTLQLDITARLSMSLNNTPLQGAHINVVSGNFIIAQPLGVDDGVDYCHSGRIRRIDEDAIHRQLDSGAIVLMGPVAVSVTGESFNLTSEEIATQLAIKLKAEKMIGFCSSQGVTNDDGDIVSELFPNEAQARVEAQEEKGDYNSGTVRFLRGAVKACRSGVRRCHLISYQEDGALLQELFSRDGIGTQIVMESAEQIRRATINDIGGILELIRPLEQQGILVRRSREQLEMEIDKFTIIQRDNTTIACAALYPFPEEKIGEMACVAVHPDYRSSSRGEVLLERIAAQAKQSGLSKLFVLTTRSIHWFQERGFTPVDIDLLPESKKQLYNYQRKSKVLWADLG
B2: fabD V114P (protein)
chain: MTQFAFVFPGQGSQTVGMLADMAASYPIVEETFAEASAALGYDLWALTQQGPAEELNKTWQTQPALLTASVALYRVWQQQGGKAPAMMAGHSLGEYSALVCAGVIDFADAVRLPEMRGKFMQEAVPEGTGAMAAIIGLDDASIAKACEEAAEGQVVSPVNFNSPGQVVIAGHKEAVERAGAACKAAGAKRALPLPVSVPSHCALMKPAADKLAVELAKITFNAPTVPVVNNVDVKCETNGDAIRDALVRQLYNPVQWTKSVEYMAAQGVEHLYEVGPGKVLTGLTKRIVDTLTASALNEPSAMAAALEL
B3: fabD I169A (protein)
chain: B2 chain with P114V, I169A
B4: fabD L251D (protein)
chain: B2 chain with P114V, L251D
B5: fabD V168A (protein)
chain: B2 chain with P114V, V168A
B6: fabD I135W (protein)
chain: B2 chain with P114V, I135W
B7: fabD L251A (protein)
chain: B2 chain with P114V, L251A
B8: fabD I135A (protein)
chain: B2 chain with P114V, I135A
B9: fabD V168P (protein)
chain: B2 chain with P114V, V168P
B10: fabD L251W (protein)
chain: B2 chain with P114V, L251W
B11: fabD L251Q (protein)
chain: B2 chain with P114V, L251Q
B12: fabD I135Q (protein)
chain: B2 chain with P114V, I135Q
B13: fabD I135P (protein)
chain: B2 chain with P114V, I135P
B14: fabD L251P (protein)
chain: B2 chain with P114V, L251P

Biological target: Escherichia coli (laboratory strain)
Experiment: barcode share on antibiotic plates over drug-free plates; higher = less susceptible
Conditions: antibiotic: carbenicillin; 2× MIC (3.1 µg/mL)
Protocol: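 A pool of E. coli strains, each edited to carry one amino-acid change in an essential protein, was grown for 48 h on minimal glucose agar with or without antibiotic; strain barcodes were sequenced; mean of two replicates.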

| Protein | fold change of barcode share |
| --- | --- |
| B1 | 0.435 ± 0.068 |
| B2 | 0.32 ± 0.048 |
| B3 | 0.209 ± 0.085 |
| B4 | 0.341 ± 0.093 |
| B5 | 0.215 ± 0.032 |
| B6 | 0.389 ± 0.1 |
| B7 | 0.299 ± 0.098 |
| B8 | 2.04 ± 1.3 |
| B9 | 0.334 ± 0.18 |
| B10 | 0.55 ± 0.16 |
| B11 | 0.183 ± 0.035 |
| B12 | 0.476 ± 0.12 |
| B13 | 0.537 ± 0.096 |
| B14 | 0.241 ± 0.052 |

Same assay, conditions: antibiotic: gentamicin; 2× MIC (MIC 0.45 µg/mL)

| Protein | fold change of barcode share |
| --- | --- |
| B1 | 0.205 ± 0.26 |
| B2 | < 0.00443 |
| B3 | < 0.00531 |
| B4 | < 0.00584 |
| B5 | < 0.00718 |
| B6 | < 0.00402 |
| B7 | < 0.00501 |
| B8 | < 0.00302 |
| B9 | < 0.00895 |
| B10 | 0.00662 ± 0.0022 |
| B11 | < 0.00476 |
| B12 | < 0.00369 |
| B13 | 0.00729 ± 0.0041 |
| B14 | 0.00646 ± 0.0028 |
